In the supplement of paper PMC3334620:
The full ranking holds about 33,000 sequences; the median of “E-score (-0.5 to 0.5)” is about -0.056, and the highest 2% start at about 0.38. The list shows a part of the results.

These sequences were tested against Stb4 (UniProt P50104) (assay: PBM E-score (8-mer binding enrichment) (E-score (-0.5 to 0.5)); higher = stronger / more preferred TF binding; most listed sequences are background and not binding sites). Settings: protein concentration: 200 nM; construct: GST-DNA-binding domain.
Outline: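 E-scores (a modified Wilcoxon-Mann-Whitney statistic) were assigned by the Universal PBM Analysis Suite to every ungapped eight-base word pooled with its reverse complement. The input came from universal all-10-mer Agilent arrays made double-stranded by primer extension and probed with GST-tagged yeast transcription factors at about 100-200 nM. Fluorescent anti-GST detected bound protein, and masliner normalised the scans.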

| Sequence | PBM E-score |
| --- | --- |
| GAAAAGTC | -0.011 |
| AGAATGCT | -0.287 |
| AAATGTTG | -0.222 |
| TACATGGA | -0.0258 |
| CCAGCCAC | -0.212 |
| ATTATTGA | -0.189 |
| CCCCGTAA | -0.00165 |
| GAGCCTAC | 0.0484 |
| ATGAAACG | -0.0253 |
| AGTAACCC | -0.057 |
| TTACGAAA | -0.0242 |
| AAGCCATT | -0.0982 |
| AACTATTG | -0.243 |
| CCCAAAGC | -0.147 |
| AGTGACAA | -0.273 |
| CCTCTCCG | 0.131 |
| TCACGACA | -0.241 |
| ACGACTCG | 0.00456 |
| AGTAGGCA | -0.0532 |
| GAATATAA | 0.105 |
| CTCGGGTC | 0.434 |
| AGGAGGCC | -0.201 |
| CGGTAATA | 0.313 |
| GATACTAC | 0.045 |
| ATAGCTTC | -0.039 |

| Sequence | PBM E-score |
| --- | --- |
| CCATGTAG | -0.0753 |
| ATCTGACA | -0.0757 |
| AGCTCTCG | 0.187 |
| AATGCCCT | -0.158 |
| AAGAAAGA | -0.0976 |
| ACGGTCGG | 0.294 |
| TGATCGCA | -0.247 |
| CTAGAAAC | -0.159 |
| GGTGCCGA | 0.402 |
| AGATGAGG | -0.113 |
| AGGAGTGC | -0.155 |
| GAAACCTC | -0.0492 |
| ACAGAAAC | -0.168 |
| CGTATCTA | 0.015 |
| CAGGTAAC | -0.127 |
| CCCTCAAC | -0.0392 |
| CGATATCG | 0.121 |
| GATAGACA | -0.23 |
| CCAGTCGG | 0.279 |
| ATCCTGTG | -0.13 |
| ATTAGTAC | -0.131 |
| AAGTATGG | -0.133 |
| ATGGGCGG | 0.15 |
| AATAATTA | 0.0396 |
| CTAAGATC | 0.0238 |

| Sequence | PBM E-score |
| --- | --- |
| GGTAGGTA | 0.0595 |
| GCGTCCGA | 0.282 |
| CCCAATAG | -0.29 |
| AGCGTTTC | -0.00279 |
| CCACATTC | -0.0745 |
| GCAGATCC | 0.0981 |
| AGGGGGCC | -0.157 |
| CATTAGCA | -0.0663 |
| AGGTGACT | -0.198 |
| CTTTCCGC | 0.324 |
| TGACCTAA | 0.0344 |
| GCCCGGCC | 0.136 |
| ATTCCAAC | -0.0549 |
| CGTGCGTA | 0.0536 |
| GCCAACCA | 0.00327 |
| AGATTAGG | -0.115 |
| AGCCGGAA | 0.395 |
| AAACATTC | -0.143 |
| GGCGGATA | 0.374 |
| CGACGACC | 0.17 |
| AAGGTTAA | -0.0619 |
| CGCCTTCC | 0.183 |
| ACGTAGCA | -0.158 |
| AGCCTTTG | -0.254 |
| AACGGAAT | 0.315 |

| Sequence | PBM E-score |
| --- | --- |
| ACAGCCGA | 0.383 |
| CGAGCACA | 0.175 |
| GAATGTAA | 0.237 |
| CGCGCTAA | -0.0373 |
| GGCTGAGA | 0.0569 |
| CGTCCTCA | -0.158 |
| AAAAACAA | 0.178 |
| GACAACTC | 0.119 |
| CCATGGTC | -0.0447 |
| ACCCCCTC | -0.235 |
| ATGCAGAG | -0.146 |
| ATGGCGAA | 0.00408 |
| CCCCCGGC | 0.172 |
| GATCCCGA | 0.417 |
| ATATGGAG | -0.075 |
| GTAAGGCA | -0.226 |
| AGGTCCCG | 0.325 |
| GTCCATCA | 0.00371 |
| CACGGCTG | 0.131 |
| GTACCGAA | 0.358 |
| ACCGTACC | 0.205 |
| ACGAATTC | -0.192 |
| CGCACCAA | -0.0332 |
| GGGATCGA | -0.0135 |
| CTGGGAGA | -0.108 |

| Sequence | PBM E-score |
| --- | --- |
| CAGCCCCC | -0.209 |
| AGCTGGGG | -0.00585 |
| ATCAGCGC | 0.0346 |
| GCCTCCGA | 0.278 |
| AGACACTG | -0.164 |
| CCGCTCAA | 0.0048 |
| CTGCATCA | -0.271 |
| CCTACTTC | -0.119 |
| AAAGGGGT | -0.27 |
| AACAACGG | 0.106 |
| ATATACAC | -0.126 |
| AGTCAATG | -0.246 |
| CTAAATAG | -0.203 |
| GATCGGGA | 0.359 |
| CCTGTGTC | -0.0491 |
| AGGGGAAG | -0.173 |
| CGTAGTAC | -0.0659 |
| ATAGTTGC | -0.0884 |
| CAGGTGGC | -0.216 |
| TACAGAAA | -0.00236 |
| CGTAGTCA | -0.208 |
| CGACCTCC | 0.249 |
| ACTTGAAT | 0.0633 |
| ACCAGCCG | 0.256 |
| GAGGATAC | -0.116 |

| Sequence | PBM E-score |
| --- | --- |
| CCAGTTCA | -0.0458 |
| AATCATTA | -0.324 |
| CCTCAGTA | -0.0836 |
| CGGCACCC | 0.216 |
| CCGGTCAA | 0.158 |
| CATCGCGA | -0.135 |
| CAAGACTC | -0.117 |
| AGCTCAAA | -0.0768 |
| GGAGGAAC | -0.0445 |
| CGGTCAAA | 0.106 |
| ATAAGGCG | -0.0975 |
| AGGCTTGA | -0.241 |
| ATCTCAAG | -0.175 |
| CGACGTGA | 0.061 |
| CAGCCCTC | 0.0339 |
| AGGCGGTG | -0.178 |
| ACTAGCCG | 0.338 |
| CCTCTGCA | -0.118 |
| CTATGGCA | -0.225 |
| TCATGCCA | -0.205 |
| CCTACGAC | -0.165 |
| CGCTGAGC | -0.209 |
| TCGTAAAA | 0.0883 |
| CCAACCAA | -0.12 |
| ACACGGCC | 0.0659 |

| Sequence | PBM E-score |
| --- | --- |
| CCGCGGGA | 0.32 |
| ACCGTAAG | -0.0734 |
| ACTAACTA | 0.0522 |
| ATGGGCTA | -0.084 |
| CCGGAGGA | 0.308 |
| AAGTCTCG | 0.218 |
| CAAAAGTA | -0.0702 |
| GGTTTTTA | -0.0968 |
| AGTTGGGC | -0.0616 |
| GACCGAAA | 0.255 |
| CTCTCCAA | -0.0833 |
| CCGTTGAG | 0.0563 |
| ATGGCACA | -0.023 |
| TCTTTTAA | -0.0966 |
| GTTGTACA | 0.0248 |
| GGCCATGA | 0.0682 |
| GCTTATGA | 0.027 |
| GCCGTTGA | -0.036 |
| ATAGCTAC | 0.0314 |
| CCCGTTAA | 0.218 |
| ACAATAAA | -0.035 |
| ACGACGCT | -0.109 |
